According to PubChem BioAssay AID686979 (National Center for Advancing Translational Sciences (NCATS), 2013):
Where “and” joins values, the source holds several entries; their conditions need not be identical. Equal values may be shown once. The campaign covered roughly 420,000 compounds. About 50,000 (12%) were called active. This list was built around the results that the source calls inconclusive (neither active nor inactive); the mix of calls is not that of the screen. The call rests on the fitted dose curve; in most records, active means well fitted inhibition curve with a large enough effect; inconclusive means small, poorly fitted or top-dose-only effect; inactive means flat fitted curve, though single readings scatter. Where the call is inconclusive, the potency comes from a doubtful curve fit.

assay: qHTS for Inhibitors of human tyrosyl-DNA phosphodiesterase 1 (TDP1): qHTS in cells in presence of CPT; conditions: chicken DT40 Tdp1-/-;hTDP1 cells + 20 nM CPT, ATP luminescence, 48 h; activity change, negative = growth inhibition: at 46.2 µM (top of the series) unless noted; further: nearly all actives have a fitted effect of over 55% in size
Summary of the method: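 Chicken DT40 Tdp1-/- cells complemented with human TDP1, 400 cells/well, exposed to compounds plus 20 nM camptothecin for at least 48 h at 37 C; viability read as ATP content by CellTiter-Glo luminescence.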
On the % scale 0 is the no-effect control and ±100 the full control effect; potency means the concentration at half of the fitted maximal effect; tags describe the fitted curve by direction and shape.

Structure (SMILES)	Potency	activity change, negative = growth inhibition
O=C(N/N=C/C1CC=CCC1)c1cc2ccccc2cc1O (stereo not drawn)	inactive	
CCOc1ccc(C(=O)NCCc2sc(-c3ccc(C)cc3)nc2C)cc1	active: 23.1 µM	
CN(C)c1cc[n+](CC(=O)N2CCCc3ccccc32)cc1	inconclusive: 23.1 µM [inhibitor, single point]	
Cc1nn(C)c(Oc2ccc(Cl)cc2)c1C(=O)Nc1ccc(F)cc1F	inconclusive: 18.4 µM [inhibitor, single point]	
O=C(Nc1ccc(F)c(Cl)c1)c1cc(C2CCCN(S(=O)(=O)c3cccs3)C2)on1 (stereo not drawn)	inconclusive: 16.4 µM [inhibitor, single point]	
Cc1ccccc1OCCC(=O)N1CCN(S(=O)(=O)c2ccc(Br)cc2)CC1	inconclusive: 18.4 µM [inhibitor, single point]	
Cc1ccc(CCNC(=O)c2ccc(CS(=O)(=O)c3ccc(Br)cc3)o2)cc1	inactive	
C/C(CC(=O)Nc1ccccn1)=N\NC(=O)c1cccc(C)c1	inactive	
CCOc1ccccc1NC(=O)CSc1c(C)cnc2c1c(=O)n(C)c(=O)n2C	inconclusive: 29.1 µM [inhibitor, single point]	
CC(C)CCN1C(=O)CCC1(C)C(=O)NC1CCCCCCC1 (stereo not drawn)	inconclusive: 3.98 µM [inhibitor, full curve, poor fit]	
OCC(CO)(CO)N=Cc1c(O)ccc2ccccc12	inconclusive: 16.4 µM [inhibitor, single point]	
COc1cc(Nc2nc(SCc3ccccc3F)nc3ccccc23)cc(OC)c1	inconclusive: 29.1 µM [inhibitor, single point]	
CC(=O)c1cccc(OC(=O)c2cc(S(=O)(=O)N3CCOCC3)ccc2N2CCCC2)c1	inconclusive: 29.1 µM [inhibitor, single point]	
CCc1ccc(C(O)c2ncc(-c3cccc(OC)c3)[nH]2)cc1 (stereo not drawn)	inconclusive: 18.4 µM [inhibitor, single point]	
COc1ccc(C(=O)CC(=O)C(=O)Nc2ccc(C)cc2Cl)cc1	inconclusive: 29.1 µM [inhibitor, single point]	
O=C(CCc1nc2ccccc2c(=O)[nH]1)NNC(=O)c1cccc(Cl)c1	inactive	
Cc1ccc(SCC(=O)Nc2ccc(-c3nnc(-c4ccco4)o3)cc2)cc1	inconclusive: 18.4 µM [inhibitor, single point]	
Nc1ccc(C(=O)N2CCCC2)cc1CS(=O)(=O)c1ccc(Cl)cc1	inactive	
Cc1nc2ncnn2c(N2CCN(C(=O)c3cccc(F)c3)CC2)c1C	inactive	
CC(C)NC(=O)C1(C)CN(S(C)(=O)=O)CC(=O)N1CCCn1ccnc1 (stereo not drawn)	inactive	
CN(C1=NS(=O)(=O)N=C(N(C)c2ccccc2)O1)c1ccccc1	inconclusive: 29.1 µM [inhibitor, single point]	
COc1cc(NC(=S)N2CCC(C(N)=O)CC2)c(OC)cc1Cl	inactive	

Structure (SMILES)	Potency	activity change, negative = growth inhibition
COc1ccc(CNC(=O)c2ccc[nH]2)cc1Cl	inactive	
COc1ccc(C2c3[nH]c4ccccc4c3C[C@H]3C(=O)N(C)CC(=O)N23)cc1OC (stereo partly drawn)		inconclusive: -9.86% [inhibitor]
CCOc1ccccc1NC(=O)c1cccc2ccccc12	inconclusive: 18.4 µM [inhibitor, single point]	
Cc1ccc(C(c2nnnn2C2CCCC2)N2CCc3ccccc32)cc1 (stereo not drawn)	inconclusive: 25.9 µM [inhibitor, single point]	
NC(=O)CC(NC(=O)c1cccc(Br)c1)c1ccc(NC2CCN(Cc3ccccc3)CC2)c([N+](=O)[O-])c1 (stereo not drawn)	inconclusive: 13 µM [inhibitor, partial curve]	
O=C(Nc1ccc(Cl)c(C(F)(F)F)c1)[C@@H]1CC=C[C@@H]2CCN(C3CC3)C(=O)[C@@H]21	inactive and inconclusive: 25.1 µM [inhibitor, single point]	
C/C(CC(=O)Nc1ccc(OCc2ccccc2)cc1)=N\NC(=O)C(=O)Nc1ccc(C)c(Cl)c1	inconclusive: 29.1 µM [inhibitor, single point]	
COc1ccc([C@H]2CC(=O)C[C@@H](CCn3cc(-c4ccncc4)nn3)O2)cc1	inactive	
O=C(CCC1CCCC1)NNC(=O)c1ccccc1O	inconclusive: 29.1 µM [inhibitor, single point]	
O=C(CN1CCOCC1)Nc1ccccc1Sc1ccc(Cl)cc1	inconclusive: 23.1 µM [inhibitor, single point]	
CC1CCCCC1NC(=O)C1CCC(CNS(=O)(=O)c2cccc3cccnc23)CC1 (stereo not drawn)	inconclusive: 25.9 µM [inhibitor, single point]	
Cc1ncc(COCc2ccccc2)c(CO)c1OCc1ccccc1	inconclusive: 29.1 µM [inhibitor, single point]	
CCOCCCNC(=O)C(c1ccc(OC)cc1)N(Cc1cccs1)C(=O)c1ccccc1O (stereo not drawn)	inactive and inconclusive: 18.4 µM [inhibitor, single point]	
CC(C)(C)c1ccc(C(=O)N2CCC(C(=O)NC3CCCCCC3)CC2)cc1	inconclusive: 29.1 µM [inhibitor, single point]	
O=C(NCc1ccccc1C(F)(F)F)c1cccc2c1C(=O)c1ccc(N3CCCCC3)cc1S2(=O)=O	inconclusive: 18.4 µM [inhibitor, single point]	
Cc1ccnc(Cc2ccccc2)n1	inactive	
COc1ccc(CCNC(=O)c2cnc3sc(N4CCCCCC4)nn3c2=O)cc1OC	active: 11.6 µM	
O=C(NCCCCc1ccccc1)c1cccc([N+](=O)[O-])c1	active: 18.4 µM	
O=c1[nH]cnc2sc3c(c12)CCN(Cc1ccccc1)C3	inconclusive: 29.1 µM [inhibitor, single point]	
Cc1ccc(CS(=O)Cc2ccc(C(=O)N3CCN(c4cccc(C)c4C)CC3)o2)cc1 (stereo not drawn)	inconclusive: 23.1 µM [inhibitor, single point]	
O=C(CN1CCN(S(=O)(=O)c2ccccc2)CC1)Nc1ccc2c(c1)CCC2	inconclusive: 18.4 µM [inhibitor, single point]	
